“And” between values parts separate entries of the source, which are not always exact repeats. Identical values can stand only once. Like-named read-outs stand apart in the source and are kept apart here.
Key:
[1] = target: PF-7802-labelled proteins in ARPE-19 cells (Homo sapiens, UniProt Q15746); conditions: for Median SILAC Ratio (Heavy/Light): protein MYLK Myosin light chain kinase, smooth muscle (Q15746), replicates in separate columns
[2] = target: PF-7802-labelled proteins in ARPE-19 cells (Homo sapiens, UniProt P01889); conditions: protein HLA-B HLA class I histocompatibility antigen, B-7 alpha chain (P01889); one column per replicate
[3] = target: PF-7802-labelled proteins in ARPE-19 cells (Homo sapiens, UniProt P16070); conditions: protein CD44 CD44 antigen (P16070)
[4] = target: PF-7802-labelled proteins in ARPE-19 cells (Homo sapiens, UniProt Q07021); conditions: protein C1QBP Complement component 1 Q subcomponent-binding protein, mitochondrial (Q07021)
[5] = target: T1, PF-7802-labelled proteins in ARPE-19 cells (Homo sapiens, UniProt Q12906); conditions: for Median SILAC Ratio (Heavy/Light): one column per replicate
T1 sequence (Q12906 1-894): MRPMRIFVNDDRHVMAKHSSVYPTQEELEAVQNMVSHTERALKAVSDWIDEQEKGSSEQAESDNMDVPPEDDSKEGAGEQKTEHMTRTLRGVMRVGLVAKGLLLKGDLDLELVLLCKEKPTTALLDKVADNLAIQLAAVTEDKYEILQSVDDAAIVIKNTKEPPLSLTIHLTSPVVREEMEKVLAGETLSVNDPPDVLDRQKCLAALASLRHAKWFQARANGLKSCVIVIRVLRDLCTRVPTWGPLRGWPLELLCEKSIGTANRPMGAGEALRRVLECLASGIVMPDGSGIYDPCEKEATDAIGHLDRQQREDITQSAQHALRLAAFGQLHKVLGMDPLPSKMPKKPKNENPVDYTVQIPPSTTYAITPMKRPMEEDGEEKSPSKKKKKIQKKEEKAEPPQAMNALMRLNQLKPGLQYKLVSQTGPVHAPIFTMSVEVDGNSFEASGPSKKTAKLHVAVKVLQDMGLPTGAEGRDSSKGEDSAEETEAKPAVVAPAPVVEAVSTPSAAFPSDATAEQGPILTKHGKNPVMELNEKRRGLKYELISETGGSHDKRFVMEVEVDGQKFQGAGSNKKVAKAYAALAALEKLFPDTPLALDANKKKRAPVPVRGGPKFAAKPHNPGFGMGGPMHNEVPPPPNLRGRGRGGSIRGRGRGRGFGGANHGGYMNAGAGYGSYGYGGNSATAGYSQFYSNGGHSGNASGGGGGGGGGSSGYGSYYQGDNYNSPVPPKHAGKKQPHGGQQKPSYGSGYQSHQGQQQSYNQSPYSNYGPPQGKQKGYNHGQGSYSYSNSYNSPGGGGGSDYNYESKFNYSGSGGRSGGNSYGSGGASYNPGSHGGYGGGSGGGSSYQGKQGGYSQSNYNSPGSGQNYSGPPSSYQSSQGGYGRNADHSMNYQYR

[6] = target: PF-7802-labelled proteins in ARPE-19 cells (Homo sapiens, UniProt P30048); conditions: protein PRDX3 Thioredoxin-dependent peroxide reductase, mitochondrial, P30048
[7] = target: PF-7802-labelled proteins in ARPE-19 cells (Homo sapiens, UniProt P09493); conditions: TPM1 Tropomyosin alpha-1 chain (P09493)
[8] = target: PF-7802-labelled proteins in ARPE-19 cells (Homo sapiens, UniProt O15260); conditions: SURF4 Surfeit locus protein 4 (O15260)
[9] = target: PF-7802-labelled proteins in ARPE-19 cells (Homo sapiens, UniProt P05026); conditions: protein ATP1B1 Sodium/potassium-transporting ATPase subunit beta-1 (P05026)
[10] = target: PF-7802-labelled proteins in ARPE-19 cells (Homo sapiens, UniProt Q15124); conditions: replicates in separate columns
[11] = target: PF-7802-labelled proteins in ARPE-19 cells (Homo sapiens, UniProt P56470); conditions: protein LGALS4 Galectin-4 (P56470); replicates in separate columns
[12] = target: PF-7802-labelled proteins in ARPE-19 cells (Homo sapiens, UniProt P18124); conditions: protein RPL7 60S ribosomal protein L7, P18124
[13] = target: PF-7802-labelled proteins in ARPE-19 cells (Homo sapiens, UniProt O43390); conditions: protein HNRNPR Heterogeneous nuclear ribonucleoprotein R (O43390); one column per replicate
[14] = target: PF-7802-labelled proteins in ARPE-19 cells (Homo sapiens, UniProt Q13247); conditions: SRSF6 Serine/arginine-rich splicing factor 6 (Q13247)
[15] = target: PF-7802-labelled proteins in ARPE-19 cells (Homo sapiens, UniProt P07737); conditions: protein PFN1 Profilin-1 (P07737); replicates in separate columns
[16] = target: PF-7802-labelled proteins in ARPE-19 cells (Homo sapiens, UniProt P21964); conditions: protein COMT Catechol O-methyltransferase (P21964)
[17] = target: PF-7802-labelled proteins in ARPE-19 cells (Bos taurus, UniProt P02662); conditions: protein no description (P02662); replicates in separate columns
[18] = target: PF-7802-labelled proteins in ARPE-19 cells (Homo sapiens, UniProt P07195); conditions: protein LDHB L-lactate dehydrogenase B chain (P07195); replicates in separate columns
[19] = target: PF-7802-labelled proteins in ARPE-19 cells (Homo sapiens, UniProt P62424); conditions: protein RPL7A 60S ribosomal protein L7a, P62424
[20] = target: PF-7802-labelled proteins in ARPE-19 cells (Homo sapiens, UniProt Q8NBS9); conditions: TXNDC5 Thioredoxin domain-containing protein 5 (Q8NBS9)

Sequence of UniProt P07737 (P07737 whole entry): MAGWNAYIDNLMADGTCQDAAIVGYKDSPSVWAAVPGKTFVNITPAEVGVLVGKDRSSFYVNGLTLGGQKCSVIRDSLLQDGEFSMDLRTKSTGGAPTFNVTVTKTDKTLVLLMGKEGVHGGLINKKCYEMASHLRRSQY
Sequence of UniProt Q15746 (Q15746 whole entry): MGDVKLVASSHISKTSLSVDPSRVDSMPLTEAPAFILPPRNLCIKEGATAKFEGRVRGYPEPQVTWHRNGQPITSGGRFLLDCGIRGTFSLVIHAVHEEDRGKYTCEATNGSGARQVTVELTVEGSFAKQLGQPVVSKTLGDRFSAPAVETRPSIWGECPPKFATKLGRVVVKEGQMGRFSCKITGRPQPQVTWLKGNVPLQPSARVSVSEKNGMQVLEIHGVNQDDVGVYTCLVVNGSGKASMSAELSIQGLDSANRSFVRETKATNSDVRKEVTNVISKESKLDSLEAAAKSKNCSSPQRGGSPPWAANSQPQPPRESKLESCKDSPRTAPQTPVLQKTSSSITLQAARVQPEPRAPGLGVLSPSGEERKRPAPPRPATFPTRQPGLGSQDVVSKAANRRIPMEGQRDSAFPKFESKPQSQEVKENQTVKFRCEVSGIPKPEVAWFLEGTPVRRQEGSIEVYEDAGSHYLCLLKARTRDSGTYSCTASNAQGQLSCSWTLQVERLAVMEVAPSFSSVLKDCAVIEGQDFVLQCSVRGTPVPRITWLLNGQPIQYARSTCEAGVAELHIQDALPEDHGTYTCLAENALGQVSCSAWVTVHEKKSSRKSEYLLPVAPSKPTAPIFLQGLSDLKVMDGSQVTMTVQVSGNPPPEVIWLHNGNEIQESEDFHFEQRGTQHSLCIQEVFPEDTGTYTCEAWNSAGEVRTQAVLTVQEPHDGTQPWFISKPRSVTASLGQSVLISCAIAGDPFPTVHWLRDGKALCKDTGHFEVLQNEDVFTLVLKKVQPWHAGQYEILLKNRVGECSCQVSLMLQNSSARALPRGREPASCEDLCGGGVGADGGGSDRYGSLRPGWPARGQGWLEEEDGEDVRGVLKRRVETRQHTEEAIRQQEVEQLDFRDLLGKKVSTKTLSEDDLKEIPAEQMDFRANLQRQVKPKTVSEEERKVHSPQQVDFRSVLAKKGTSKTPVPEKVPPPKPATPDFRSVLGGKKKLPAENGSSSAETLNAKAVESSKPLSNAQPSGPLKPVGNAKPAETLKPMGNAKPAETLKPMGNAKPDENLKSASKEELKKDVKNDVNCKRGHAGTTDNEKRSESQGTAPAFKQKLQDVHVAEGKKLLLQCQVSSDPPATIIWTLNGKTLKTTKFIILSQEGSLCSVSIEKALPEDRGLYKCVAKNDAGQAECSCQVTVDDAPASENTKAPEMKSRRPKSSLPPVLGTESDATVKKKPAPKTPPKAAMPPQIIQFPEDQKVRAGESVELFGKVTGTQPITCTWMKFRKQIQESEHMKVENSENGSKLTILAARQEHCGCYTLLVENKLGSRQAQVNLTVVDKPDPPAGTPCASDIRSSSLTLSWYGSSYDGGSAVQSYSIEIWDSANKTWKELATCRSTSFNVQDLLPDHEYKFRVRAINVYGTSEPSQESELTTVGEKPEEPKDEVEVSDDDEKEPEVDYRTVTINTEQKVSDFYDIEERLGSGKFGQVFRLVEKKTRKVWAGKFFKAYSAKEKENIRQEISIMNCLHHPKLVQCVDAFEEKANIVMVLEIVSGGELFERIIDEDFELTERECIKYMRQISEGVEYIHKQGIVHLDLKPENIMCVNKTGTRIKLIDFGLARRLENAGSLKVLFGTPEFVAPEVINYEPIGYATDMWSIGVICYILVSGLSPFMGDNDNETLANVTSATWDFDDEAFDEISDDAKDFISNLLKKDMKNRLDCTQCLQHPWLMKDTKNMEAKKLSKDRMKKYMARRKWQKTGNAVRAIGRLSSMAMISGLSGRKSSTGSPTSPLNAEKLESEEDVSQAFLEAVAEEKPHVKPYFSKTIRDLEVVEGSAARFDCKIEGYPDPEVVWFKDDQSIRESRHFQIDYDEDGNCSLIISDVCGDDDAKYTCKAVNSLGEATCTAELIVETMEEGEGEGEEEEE
Sequence of UniProt P09493 (P09493 whole entry): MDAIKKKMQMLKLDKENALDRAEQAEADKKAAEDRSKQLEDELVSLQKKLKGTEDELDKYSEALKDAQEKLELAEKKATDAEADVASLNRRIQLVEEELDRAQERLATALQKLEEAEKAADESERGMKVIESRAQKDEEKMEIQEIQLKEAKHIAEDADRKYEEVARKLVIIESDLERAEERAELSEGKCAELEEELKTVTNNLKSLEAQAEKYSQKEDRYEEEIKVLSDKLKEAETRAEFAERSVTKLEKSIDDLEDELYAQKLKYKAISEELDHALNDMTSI
Sequence of UniProt Q15124 (Q15124 whole entry): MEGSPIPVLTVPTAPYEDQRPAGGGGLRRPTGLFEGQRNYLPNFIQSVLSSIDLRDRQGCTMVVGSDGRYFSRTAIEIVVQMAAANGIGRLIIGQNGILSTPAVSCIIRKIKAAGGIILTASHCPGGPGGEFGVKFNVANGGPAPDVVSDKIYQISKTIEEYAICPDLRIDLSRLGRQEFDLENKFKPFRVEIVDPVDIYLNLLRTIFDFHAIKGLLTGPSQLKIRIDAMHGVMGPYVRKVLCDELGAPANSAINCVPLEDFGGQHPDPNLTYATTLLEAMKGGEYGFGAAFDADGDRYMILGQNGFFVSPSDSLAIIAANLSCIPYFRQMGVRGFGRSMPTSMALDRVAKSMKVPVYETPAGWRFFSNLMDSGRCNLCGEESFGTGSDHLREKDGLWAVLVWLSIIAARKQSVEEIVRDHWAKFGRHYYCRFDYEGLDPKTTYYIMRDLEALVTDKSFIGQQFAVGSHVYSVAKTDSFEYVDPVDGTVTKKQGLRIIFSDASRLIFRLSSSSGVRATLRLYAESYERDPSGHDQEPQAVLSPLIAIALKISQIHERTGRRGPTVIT
Sequence of UniProt P21964 (P21964 whole entry): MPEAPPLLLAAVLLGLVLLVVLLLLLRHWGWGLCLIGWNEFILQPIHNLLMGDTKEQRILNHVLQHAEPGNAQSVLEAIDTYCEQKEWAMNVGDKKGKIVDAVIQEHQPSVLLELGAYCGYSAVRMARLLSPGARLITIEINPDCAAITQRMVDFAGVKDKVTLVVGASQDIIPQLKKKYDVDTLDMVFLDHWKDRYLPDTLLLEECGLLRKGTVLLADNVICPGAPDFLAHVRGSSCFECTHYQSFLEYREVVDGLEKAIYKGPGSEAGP
Sequence of UniProt O43390 (O43390 whole entry): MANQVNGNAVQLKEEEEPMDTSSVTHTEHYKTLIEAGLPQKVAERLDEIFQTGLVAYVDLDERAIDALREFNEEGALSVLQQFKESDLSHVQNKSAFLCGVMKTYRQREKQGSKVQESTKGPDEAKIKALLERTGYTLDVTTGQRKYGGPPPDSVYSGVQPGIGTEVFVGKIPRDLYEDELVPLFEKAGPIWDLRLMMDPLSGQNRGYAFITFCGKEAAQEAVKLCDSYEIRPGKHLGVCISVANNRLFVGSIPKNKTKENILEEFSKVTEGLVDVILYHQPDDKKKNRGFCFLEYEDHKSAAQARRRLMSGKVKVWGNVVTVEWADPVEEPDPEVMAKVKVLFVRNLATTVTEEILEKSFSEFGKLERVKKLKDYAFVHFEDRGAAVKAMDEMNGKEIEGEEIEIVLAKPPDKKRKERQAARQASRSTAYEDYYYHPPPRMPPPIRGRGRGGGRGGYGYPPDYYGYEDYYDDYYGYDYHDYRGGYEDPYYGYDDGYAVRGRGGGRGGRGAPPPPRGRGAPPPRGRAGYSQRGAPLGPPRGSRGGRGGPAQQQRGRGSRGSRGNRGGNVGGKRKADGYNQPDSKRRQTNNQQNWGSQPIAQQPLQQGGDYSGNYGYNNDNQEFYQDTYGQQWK
Sequence of UniProt P56470 (P56470 whole entry): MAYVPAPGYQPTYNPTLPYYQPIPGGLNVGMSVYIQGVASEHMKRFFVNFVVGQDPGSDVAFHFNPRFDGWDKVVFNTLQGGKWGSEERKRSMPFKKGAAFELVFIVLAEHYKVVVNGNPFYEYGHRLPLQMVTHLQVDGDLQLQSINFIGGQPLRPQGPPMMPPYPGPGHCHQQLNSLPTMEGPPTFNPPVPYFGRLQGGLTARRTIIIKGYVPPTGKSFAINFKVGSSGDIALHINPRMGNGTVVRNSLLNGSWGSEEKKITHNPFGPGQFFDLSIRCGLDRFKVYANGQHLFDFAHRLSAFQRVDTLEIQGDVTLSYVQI
Sequence of UniProt Q13247 (Q13247 whole entry): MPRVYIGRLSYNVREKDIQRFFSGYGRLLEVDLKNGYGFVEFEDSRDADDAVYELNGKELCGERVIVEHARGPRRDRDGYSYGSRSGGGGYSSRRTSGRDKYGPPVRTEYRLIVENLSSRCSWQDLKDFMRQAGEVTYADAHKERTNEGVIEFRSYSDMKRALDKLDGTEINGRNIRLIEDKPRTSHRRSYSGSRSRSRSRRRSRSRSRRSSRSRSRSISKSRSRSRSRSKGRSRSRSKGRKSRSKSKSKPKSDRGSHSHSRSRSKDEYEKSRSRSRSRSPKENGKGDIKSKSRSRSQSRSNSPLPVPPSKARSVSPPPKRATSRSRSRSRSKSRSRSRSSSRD
Sequence of UniProt P07195 (P07195 whole entry): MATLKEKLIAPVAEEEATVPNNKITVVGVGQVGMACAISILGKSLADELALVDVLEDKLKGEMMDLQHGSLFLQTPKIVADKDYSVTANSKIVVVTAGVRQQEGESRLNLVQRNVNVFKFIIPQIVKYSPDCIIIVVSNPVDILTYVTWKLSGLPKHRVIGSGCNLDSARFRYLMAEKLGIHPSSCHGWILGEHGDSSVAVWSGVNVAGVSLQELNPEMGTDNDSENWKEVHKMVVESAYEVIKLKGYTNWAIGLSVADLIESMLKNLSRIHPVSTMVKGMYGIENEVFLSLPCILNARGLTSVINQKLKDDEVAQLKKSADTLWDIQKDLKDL

Row | SMILES | Median SILAC Ratio (Heavy/Light) [1] | Median SILAC Ratio (Heavy/Light) [2] | Median SILAC Ratio (Heavy/Light) [3] | Median SILAC Ratio (Heavy/Light) [4] | Median SILAC Ratio (Heavy/Light) [6] | Median SILAC Ratio (Heavy/Light) [7] | Median SILAC Ratio (Heavy/Light) [9] | Median SILAC Ratio (Heavy/Light) [11] | Median SILAC Ratio (Heavy/Light) [12] | Median SILAC Ratio (Heavy/Light) [13] | Median SILAC Ratio (Heavy/Light) [14] | Median SILAC Ratio (Heavy/Light) [17] | further results
1 | Cc1cc([C@H]2C[C@H]3[C@@H](C)SC(N)=N[C@@]3(c3ccc(F)cc3F)CO2)on1 [PF-9283] | 1.138 | 1.51 | 1.27 and 0.8524 | 1.348 | 1.161 | 1.8079 and 1.479 | 1.257 | 1.347 | 1.695 | 0.8073 | 0.633 | 69.6913 | Median SILAC Ratio (Heavy/Light) ([5]; […]): 1.229; Median SILAC Ratio (Heavy/Light) [8]: 0.9569; Median SILAC Ratio (Heavy/Light) ([10]; […]): 0.7945; Median SILAC Ratio (Heavy/Light) [15]: 1.454 and 1.047 and 0.8125; Median SILAC Ratio (Heavy/Light) [16]: 0.6078 and 0.8309
2 | CNC1CCN(C(=O)C[C@@H](Cc2ccccc2)C(=O)N[C@@H](CSC)C(=O)N[C@@H](CC2CCCCC2)[C@@H](O)C(=O)OC(C)C)CC1 [CP-108671, reference compound] | 1.1965 | 1.249 | 1.048 | 1.222 | 1.412 | 1.679 | 1.281 | 0.6307 | 1.745 | 0.8378 | 0.63 | 29.4002 | SILAC ratio (DMSO/CP-108671) ([1]; Q15746 MYLK Myosin light chain kinase, smooth muscle): 0.84; Median SILAC Ratio (Heavy/Light) [18]: 2.135; SILAC ratio (DMSO/CP-108671) ([5]; Q12906 ILF3 Interleukin enhancer-binding factor 3): 0.96; Median SILAC Ratio (Heavy/Light) ([5]; protein ILF3 Interleukin enhancer-binding factor 3 (Q12906)): 1.038; Median SILAC Ratio (Heavy/Light) ([10]; protein PGM5 Phosphoglucomutase-like protein 5 (Q15124)): 1.603; Median SILAC Ratio (Heavy/Light) [19]: 1.406; Median SILAC Ratio (Heavy/Light) [20]: 1.019
